# Results published in the supplement of paper PMC3334620.
# Whole data set: some 33,000 sequences, median “E-score (-0.5 to 0.5)” near -0.016, cut for the highest 2% near 0.31. The list shows a part of the results.
# Biological target: Cst6 (UniProt P40535)
# Experiment: PBM E-score (8-mer binding enrichment) (E-score (-0.5 to 0.5)); higher = stronger / more preferred TF binding; most listed sequences are background and not binding sites
# Settings: protein concentration: 200 nM; construct: GST-DNA-binding domain
# Method in brief: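 GST-tagged yeast TFs (full-length or DNA-binding domain) were made by PURExpress in vitro transcription/translation and applied at about 100-200 nM to universal all-10-mer Agilent arrays. The arrays were made double-stranded by primer extension, on fresh or once-stripped slides. Bound protein was detected with fluorescent anti-GST, and scans were normalised with masliner. Each ungapped eight-base word, pooled with its reverse complement, received an E-score (modified Wilcoxon-Mann-Whitney statistic) from the Universal PBM Analysis Suite.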
row,Sequence,PBM E-score
1,GCGTCTCC,-0.0657
2,GAGACGAA,-0.099
3,AGGGGGAC,-0.401
4,ACCGCTTC,-0.29
5,CCAGGTGA,-0.0641
6,GTATCTTA,0.212
7,CCAAATAA,0.281
8,ATGGTATG,-0.199
9,AAATCAAG,0.205
10,ACATGACA,0.274
11,ACCTAACC,0.103
12,CCAATCTC,0.05
13,GGGCATGA,-0.111
14,ACGAGGCT,0.227
15,CTAATGGA,-0.085
16,CTATATTC,0.0369
17,CCCCGATC,-0.4
18,TAGGGGGA,-0.357
19,AACTGGTA,-0.168
20,TTTCAAAA,0.238
21,TCAGCAGA,-0.0233
22,AGTACACT,-0.0224
23,GTTCCGAA,0.143
24,AACGAGGT,0.0136
25,GTGTTTTA,0.104

row,Sequence,PBM E-score
1,CCTCCGGA,-0.277
2,CCGAGCAG,-0.12
3,AACACCAG,-0.11
4,ATTAACCA,-0.00714
5,ATCATCAA,0.326
6,ATTCTCTC,0.0266
7,TCGATGAA,0.106
8,TAACTGCA,0.00908
9,CTACAATA,0.125
10,CGCTCGTA,-0.0604
11,AAGTGAGA,0.00703
12,GCTACAAC,-0.201
13,TAGCGGGA,-0.199
14,TAAGTGGA,0.104
15,AGTCGCTG,-0.122
16,ATTCAACC,-0.0419
17,ACAGTAAG,0.0939
18,ATCTCCAA,-0.0789
19,CCGGAAGC,-0.162
20,CGGTCTCA,-0.233
21,GTCCCTCA,-0.111
22,AGTTAAAT,0.178
23,GTCAAGCA,-0.29
24,TAGAGCAA,-0.089
25,ATTCGAAG,-0.0186

row,Sequence,PBM E-score
1,AGCTAAAA,0.0957
2,ATGGCATG,0.192
3,CATTTTAG,0.236
4,CGCTCCAC,-0.209
5,ACAGCCTC,-0.201
6,TCTTTACA,0.181
7,CCCTTCAC,-0.204
8,GGTTCGTA,0.121
9,GCACCATA,-0.0457
10,CTGCCGTA,0.0163
11,CTTTTGTC,0.0876
12,TATCACAA,0.217
13,GGTCGAAA,-0.107
14,GACCCTAC,-0.157
15,CGCGGTAA,0.0402
16,AGGGCCTC,-0.241
17,AAGGCTGT,-0.27
18,GGTACTCA,-0.0257
19,ATAGCGAT,0.0555
20,AGGGCGGA,-0.37
21,ACCAAGTG,-0.117
22,AGGGACTC,-0.359
23,CGTGTCCA,-0.0242
24,AGAACCTG,-0.221
25,ATGTCGTA,0.277

row,Sequence,PBM E-score
1,GATTAAAC,0.154
2,TAACGATA,0.163
3,AATGGTGT,0.0892
4,ATATTTCC,0.0898
5,CCTGTCCC,-0.31
6,TATGCCGA,0.0886
7,TGATCGAA,0.185
8,GTCGGCGA,-0.167
9,CAGCTCAG,-0.0298
10,TATGGCAA,0.0568
11,CCTATCTC,-0.0541
12,GACGGCTC,-0.0374
13,CTGGAGCA,-0.0734
14,AAATACCC,-0.0704
15,AAGCTTGT,-0.0437
16,GCCGTCAA,0.0714
17,CGAGCTTA,-0.0873
18,CCTGATCC,-0.243
19,AGCGACAA,0.0113
20,AAGGTTTG,0.137
21,CTTCTGCC,0.00759
22,GTTTGGCA,-0.121
23,AAGTTCGA,0.0664
24,ATGCCTGC,-0.105
25,CTACGTAA,0.451

row,Sequence,PBM E-score
1,ATGGAGGC,-0.118
2,CATACAGA,0.177
3,ACAAATTC,0.138
4,CAATCGGC,0.106
5,CACAATAA,0.147
6,CCAAGCTC,-0.1
7,CAGTATTC,0.085
8,GCCAAACA,-0.121
9,TGTGCCAA,0.0839
10,CCTGACAG,-0.118
11,GCCGCACC,0.226
12,CTGTACGC,-0.0932
13,GCCGAAAA,0.138
14,AGTCAACT,-0.176
15,CTAGTGCA,-0.0643
16,GCTCGGCC,-0.271
17,GCAAAGCA,-0.0871
18,CTATCGAC,-0.222
19,CTCCCGTC,-0.11
20,ACAGTACT,-0.17
21,AGGGCTCA,-0.237
22,AATCGGGA,-0.0829
23,CCACCGCC,-0.171
24,ATTTGGCA,0.0989
25,GAGACTCA,-0.177

row,Sequence,PBM E-score
1,CCATTGCA,0.024
2,CCGTAGCC,-0.218
3,ACTTACTG,0.0171
4,CAATTGAC,0.175
5,CTCGAACA,0.104
6,ACCGACCG,-0.137
7,AGTTCTAC,0.0561
8,ACTCATGG,-0.0163
9,AGGGGCTG,-0.271
10,ATTTCTTC,0.262
11,GCCTGTTA,-0.0768
12,GGCAACCA,-0.122
13,AGATGAAG,-0.127
14,CTGCAAAG,-0.194
15,GGGGAGCA,-0.34
16,AACCGGAG,-0.183
17,GCCGCCAC,-0.188
18,CGGTAATC,-0.123
19,CTATCCTA,-0.0219
20,ATGGTTAG,0.0482
21,CTCCACAC,-0.0788
22,GCAAATCC,0.0459
23,AGCATCCA,-0.261
24,CAGCTAAG,-0.287
25,CTGAAGTA,0.0246

row,Sequence,PBM E-score
1,ACAACGTG,-0.096
2,CGGCAACG,0.0207
3,GGCTAGAC,-0.161
4,CTGCTTAA,-0.134
5,CCAGTTAG,-0.00191
6,CTGCCCAG,-0.297
7,TACCTCGA,-0.0707
8,CAGTAACG,0.0316
9,TCCCATAA,-0.0488
10,AACACAGT,0.0535
11,GGGCTGGA,-0.295
12,CGTTCAAG,0.0142
13,ACAGTGGC,-0.0617
14,GCAGAGGA,-0.123
15,AAGAGATC,-0.168
16,CATCTACG,0.05
17,AGCCCCAC,-0.161
18,AAACTCGC,-0.051
19,CCACTTAA,0.016
20,ACAGTTGC,0.0761
21,ATTTACCA,0.157
22,CCGCTTCC,-0.191
23,AGGTGCTC,-0.333
24,CTACGGAA,-0.0572
25,AACTTGAC,0.0406

row,Sequence,PBM E-score
1,CCCTGCAC,-0.215
2,GCATTAGA,0.0922
3,GCGCCGAC,-0.0138
4,AGTGGAGC,-0.165
5,ATAAATCA,0.233
6,CCGGTGAA,0.0804
7,TATGCCAA,0.009
8,CGGAGCTA,-0.157
9,AGGTGGCA,-0.0341
10,AGGGAGTC,-0.132
11,AAGGTCGT,-0.094
12,AAAGCCTC,0.0176
13,GGATACCA,-0.197
14,GATACCGA,-0.108
15,GAGAGTAC,-0.122
16,ATCTAACC,0.0628
17,AGAGGACA,-0.244
18,CGAAGGCG,0.0989
19,GTGTCATA,0.249
20,ATCGCGAC,-0.0926
21,AGTTCGCA,-0.00496
22,AACCGCAT,0.108
23,CCCAACGG,-0.233
24,CCTGAGAG,-0.189
25,AAGCCACC,-0.334

row,Sequence,PBM E-score
1,ACCCGTTC,-0.0713
2,AATTGGCT,0.079
3,CGTTTAAC,0.0149
4,ACTAAACT,0.122
5,CGAGCTAG,-0.108
6,ATGACAAA,0.287
7,GATTGTGA,0.117
8,GACAGCTC,-0.214
9,GTTGAGCA,0.0201
10,GAAAGGAC,-0.0667
11,CGAAGCGC,-0.0692
12,TACTCTCA,0.0473
13,CCGAGCCC,-0.353
14,CGCCGGTC,-0.0806
15,ATAGTTAA,0.121
16,AAAATTGA,0.22
17,AGTTTGCC,0.0119
18,CCCTACCA,0.0249
19,CTACTGTA,0.0576
